Molecules are shown by their SMILES. Screen size: about 1,200 compounds; about 30 (2%) were called active. Inconclusive results (about 23%) are left out. Calls follow the shape of the dose curve; as a rule, active = well fitted inhibition curve with a large enough effect; inconclusive = small, poorly fitted or top-dose-only effect; inactive = flat fitted curve, though single readings scatter. The list shows a part of the results.
% is scaled to controls: 0 for no effect and ±100 for the full control effect.

Sequence of UniProt Q9GZX7 (Q9GZX7 whole entry, looked up): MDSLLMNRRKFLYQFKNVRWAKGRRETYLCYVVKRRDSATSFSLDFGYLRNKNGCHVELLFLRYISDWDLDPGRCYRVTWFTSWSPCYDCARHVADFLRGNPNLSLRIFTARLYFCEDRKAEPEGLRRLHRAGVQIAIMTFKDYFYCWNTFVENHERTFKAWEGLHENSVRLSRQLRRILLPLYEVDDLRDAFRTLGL

This test has as its target Single-stranded DNA cytosine deaminase (Homo sapiens) (UniProt Q9GZX7). Nature of the test: Confirmatory qHTS assay for inhibitors of Activation Induced Cytidine Deaminase (AID): AID signals. Conditions: recombinant AID, FRET deamination/UDG coupled fluorescence, 4 h; series mostly up to 115 µM; activity, negative = inhibition: at the top concentration. The method, boiled down:
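Read 1 (AID) was measured at 540 ex/590 em after a 30 min NaOH step. The reaction was AID (1 uM, 4/3x stock) with UDG, compound at final 7.32 nM - 114 uM for 10 min, then DJC20/DJC23 substrate for 4 hr at room temperature. A UDG read at 560/665 serves as counterscreen.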
(In general: Quantitative high-throughput screening tests each substance at several concentrations.)
As to `COc1ccc(-n2c(Cc3ccccc3)nnc2SCc2nc(-c3ccccc3C)no2)cc1`, the “activity, negative = inhibition” value is inactive: -18.2%.
Turning to `Cc1c(C(=O)N(C)c2ccccc2)sc2nc(-c3ccc(F)cc3)cn12`, the “activity, negative = inhibition” value is inactive: -19.3%.
As for `CCn1c(CN2CCCCC2)nc2cc(NC(=O)COc3cc(C)ccc3C(C)C)ccc21`, the “activity, negative = inhibition” value was inactive: -14.4%.
Take `COc1ccc(N2CCN(C(=O)c3cn(C4CCCCC4)c(=O)c4c3c3ccccc3n4C)CC2)cc1`: the “activity, negative = inhibition” value was inactive: -0.756%.
In the case of `COC(=O)c1ccc(Cl)cc1NC(=O)Nc1nnc(N(C)Cc2ccccc2)s1` it was inactive: -11.9%.
As to `COc1ccc(OC)c(-c2noc(N3CCN(c4cc(Cl)ccc4C)CC3)n2)c1`, the “activity, negative = inhibition” value is inactive: -4.51%.
Regarding `CCc1ccc(CNC(=O)C(CC)n2nc(C)c3c(C)n(-c4ccccc4)nc3c2=O)cc1` (stereo not given), the “activity, negative = inhibition” value is inactive: -18.2%.
In the case of `O=C(CSc1nc2c([nH]c3ccccc32)c(=O)n1-c1ccccc1F)Nc1cccc(C(F)(F)F)c1` it was inactive: 1.59%; in that of `CCc1ccccc1-n1cnc2cc(C(=O)NC3CCCCCC3)ccc21`, inactive: -15.9%.
In the case of `CCCn1c2ccccc2c2cnn(CC(=O)N(CC)c3cc(C)ccc3C)c(=O)c21`, the “activity, negative = inhibition” value was inactive: -19.6%.
For the compound `CCCCCOc1ccccc1CN1C(=O)C(=O)c2cc(C)ccc21`, the “activity, negative = inhibition” value was inactive: -12.2%.
With `CCn1cc(C(=O)NCCc2ccc(OC)c(OC)c2)c(=O)c2cc(S(=O)(=O)N(C)C3CCCCC3)ccc21`, the “activity, negative = inhibition” value is inactive: -25.1%.
On to `CCn1nc(C)c2c(-c3ccccc3)cc(=O)n(C(C)C(=O)NCc3ccccc3OC)c21` (stereo not given), for which the “activity, negative = inhibition” value was inactive: -20.2%.
Take `Cc1cc(-c2ccccc2)n2nc(-c3ccccc3)cc2n1`: the “activity, negative = inhibition” value was inactive: 2.46%.
In the case of `Cc1ccc(NC(=O)N2CCN(c3cc(-c4noc(C)n4)ccc3C)CC2)c(F)c1`, the “activity, negative = inhibition” value is inactive: 0.707%.
With `COc1ccc(OCCCn2c(=O)oc3ccc(C)cc32)cc1`, the “activity, negative = inhibition” value was inactive: -11.5%.
Turning to `Cc1ccc(C)c(N(C)C(=O)C2CCN(c3ncnc4c3nc3n4CCCCC3)CC2)c1`, the “activity, negative = inhibition” value was inactive: -0.379%.
Regarding `Cc1cc(C)n2c(Nc3ccc4c(c3)OCCO4)c(-c3ccccc3)nc2n1`, the “activity, negative = inhibition” value was inactive: -13.8%.
As to `Cc1cc(Cl)ccc1OCC(=O)N1CCC(c2nc3ccccc3o2)CC1`, the “activity, negative = inhibition” value was inactive: -13.5%.
In the case of `Cc1nc(-c2ccc(S(=O)(=O)N(Cc3ccccc3)C(C)C)cc2)co1` it was inactive: 0.0412%.
Next, `Cc1ccccc1OCc1nnc(SCc2cc(=O)c3ccc(C)c(C)c3[nH]2)n1C`: inactive: -24.7%; `COc1ccc(Nc2nc3ccccc3nc2NS(=O)(=O)c2ccc(Cl)cc2)cc1OC`: inactive: -2.97%; `Cc1cc(C)c(NC(=O)CCCn2c(C)c3cnn(-c4ccccc4)c(=O)c3c2C)c(C)c1`: inactive: -10.2%.
On to `Cc1ccc(C(=O)Nc2ccccc2C(=O)O)cc1S(=O)(=O)N1CCCCCC1`, for which the “activity, negative = inhibition” value is inactive: -18.5%.
With `CCN(CCCNC(=O)c1cc2c(=O)[nH]c3ccc(C)cc3c2s1)Cc1ccccc1`, the “activity, negative = inhibition” value is inactive: -25.1%.
`COc1ccc(-c2cc(C(F)(F)F)nc(NCCc3ccccc3)n2)cc1`: the “activity, negative = inhibition” value was inactive: 1.2%.
In the case of `O=C(/C=C/c1cn(CC(O)CN2CCCCCC2)c2ccccc12)c1ccc(Br)cc1` (stereo not given) it was inactive: -13.7%; in that of `COc1cc2cc(CNc3ccccc3)c(=O)n(CC(=O)Nc3cc(C)cc(C)c3)c2cc1OC`, inactive: 5.1%; in that of `CCCCN(CC)CCNC(=O)C1CCN(c2nnc(C)c3c(C)n(-c4ccc(C)cc4)nc23)CC1`, inactive: -16.8%.
`Cc1ccc(CCNC(=O)c2ccc(CSc3nc4ccncc4n3Cc3ccc(F)cc3)cc2)cc1`: the “activity, negative = inhibition” value is inactive: -8.3%.
Next, `Cc1ccc(Cl)cc1N1CCN(C(=O)c2cc(S(=O)(=O)N3CCCCC3)cn2C)CC1`: inactive: -1.52%; `Cc1ccc2ccc3cc(C(=O)Nc4ccc(C)c(F)c4)nc3c2[nH]1`: inactive: 0.654%; `Cn1c(=O)c2c(-c3ccccc3Br)n(Cc3ccccc3)cc2n(C)c1=O`: inactive: -15.5%.
Next, `CCOC(=O)C1=C(CN(C)Cc2ccccc2)NC(=O)NC1c1ccc(OC(C)C)cc1` (stereo not given): inactive: -14.6%; `Cc1c(NC(=O)c2ccc(-c3ccc(F)cc3)o2)cccc1-c1nc2ncccc2o1`: inactive: -17.3%.

The record behind these values is PubChem BioAssay AID1347434 (National Center for Advancing Translational Sciences (NCATS), 2020).
